These results are taken from PubChem BioAssay AID1745853 (National Center for Advancing Translational Sciences (NCATS), 2022).

The list shows a part of the results. Further columns of the screen follow, without active or inactive calls.

Holding throughout (test): Primary Screen for Target Class Profiling of Small Molecule Inhibitors of Methyltransferases
Test [1] deals with Glycine N-methyltransferase (Homo sapiens) (UniProt Q14749). To be noted: purified enzyme, MTase-Glo SAH luminescence; measured here: GNMT inhibition; at 40 µM; stronger effect = lower value. A digest of the protocol:
(§1)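 Each enzyme was assayed with SAM and its substrate. SAH formation detected by MTase-Glo luminescence; single-point 40 uM screen[…].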

In test [2] the target is Guanidinoacetate N-methyltransferase (Homo sapiens) (UniProt Q14353). The following applies: purified enzyme, MTase-Glo SAH luminescence; measured here: GAMT inhibition; at 40 µM; stronger effect = lower value. The method, boiled down:
as §1

The target in test [3] is Histamine N-methyltransferase (Homo sapiens) (UniProt P50135). The following applies: purified enzyme, MTase-Glo SAH luminescence; measured here: HNMT inhibition; at 40 µM; stronger effect = lower value. A digest of the protocol:
as §1

For test [4], the target named is Nicotinamide N-methyltransferase (Homo sapiens) (UniProt P40261). To be noted: purified enzyme, MTase-Glo SAH luminescence; measured here: NNMT inhibition; at 40 µM; stronger effect = lower value. The method, boiled down:
as §1

Test [5] deals with Phenylethanolamine N-methyltransferase (Homo sapiens) (UniProt P11086). The following applies: purified enzyme, MTase-Glo SAH luminescence; measured here: PNMT inhibition; at 40 µM; stronger effect = lower value. A digest of the protocol:
as §1
% is scaled to controls: 0 for no effect and ±100 for the full control effect.

Consider `COc1cccc(CCC(=O)N2CCC(OCC3CC3)C2)c1` (stereo not given), for which the activity change, negative = inhibition in test [1] is -0.438%; in test [2], 0.988%; in test [3] it was 2.06%; in test [4], 2.85%; in test [5], 1.1%.
In the case of `Cn1cccc1CN1CC(Oc2ccc(F)cc2F)C1`, the activity change, negative = inhibition in test [1] was -8%; in test [2], -1.53%; in test [3], -5.41%; in test [4], -4.38%; in test [5], -4.61%.
Take `COc1cc2c(c(OC)c1O)C(c1ccc(O)cc1)C1C(=O)OC3C(COC(=O)C1=C2)OC(CO)(OC1OC(COC(=O)/C=C/c2ccc(OC4OC(C)C(O)C(O)C4O)cc2)C(O)C(O)C1O)C3O` (stereo not given): the activity change, negative = inhibition in test [1] is -13.7%; in test [2] it was -7.04%; in test [3] it was -6.69%; in test [4], -16.2%; in test [5], -16%.
Take `O=C(NCc1cccc(Cl)c1)c1ccc2oc(-c3cccnc3)nc2c1`: the activity change, negative = inhibition in test [1] is -7.11%; in test [2], -10%; in test [3], -3.03%; in test [4], -18.4%; in test [5] it was -6.42%.
With `COc1ccc(N(C(=O)c2ccc(Cl)cc2)S(=O)(=O)c2ccc3c(c2)n(C)c(=O)n3C)cc1`, the activity change, negative = inhibition in test [1] was -3.48%; in test [2], 0.909%; in test [3], -0.408%; in test [4], 5.81%; in test [5] it was -3.3%.
For `COc1ccc(-c2cc3n(n2)CC(C)(C(=O)NCc2ccccc2OC)N(c2ccc(OC)cc2)C3=O)cc1` (stereo not given) the same measures were 3.23%, 1.57%, 0.539%, -0.111% and 0.082%.
For `O=C(NC1CCN(Cc2ccccc2)CC1)C1CCCN(c2cnc3nccnc3c2)C1` (stereo not given) the same measures were -4.68%, -1.5%, -12.9%, -12.1% and 0.183%.
The like results for `C[S+](=O)([O-])NC1CCN(c2nc3ncccc3o2)C1` (stereo not given) were, in that order, -1.15%, -7.18%, -1.33%, -10.5% and -7.48%.
For the compound `Cc1ccc(-c2nnc3n(Cc4ccc(F)cc4)c(=O)c4ccccc4n23)cc1`, the activity change, negative = inhibition in test [1] was -11.8%; in test [2], 2.92%; in test [3], -4.12%; in test [4] it was -8.04%; in test [5], -3.25%.
As for `C=C(C)C1CCC2(C(=O)O[C@@H]3O[C@H](CO[C@@H]4O[C@H](CO)[C@@H](O)[C@H](O)[C@H]4O)[C@@H](O)[C@H](O[C@@H]4O[C@@H](C)[C@H](O)[C@@H](O)[C@H]4O)[C@H]3O)CCC3(C(=O)O)C(CCC4C5(C)CCC(O)C(C)(C)C5CCC43C)C12` (stereo not given in full), the activity change, negative = inhibition is 7.35% in test [1]; 5.14% in test [2]; 11.5% in test [3]; -6.42% in test [4]; 4.04% in test [5].
`COc1ccc(CN(C)CC2CCN(C)C2(C)C)cc1C(=O)O` (stereo not given): the activity change, negative = inhibition in test [1] was -7.08%; in test [2], -14%; in test [3] it was -6.46%; in test [4], -14.7%; in test [5], -10.2%.
Take `O=C(Cc1c[nH]c2ccccc12)N1CCc2c(nc(-c3ccc(F)cc3)[nH]c2=O)C1`: the activity change, negative = inhibition in test [1] was -12.1%; in test [2], -7.89%; in test [3] it was -3.92%; in test [4] it was -10.1%; in test [5], 1.47%.
The like results for `CC(C)Cn1c(=O)c2sccc2n2c(CCC(=O)NCc3ccncc3)nnc12` were, in that order, -2.31%, 2.5%, 11.3%, 7.5% and 4.05%.
The like results for `Cc1cc2c(cc3n2CC(C)(C(=O)NC2CCCCCC2)N(CCN2CCCCCC2)C3=O)o1` (stereo not given) were, in that order, 0.119%, 4.77%, -14.7%, -6.96% and -3.31%.
As for `O=C(NCc1cccnc1)c1cc(CN2CCC(Cc3ccccc3)CC2)on1`, the activity change, negative = inhibition in test [1] is -10.8%; in test [2], -13.4%; in test [3] it was -11.9%; in test [4] it was -13.4%; in test [5], -15.2%.
Take `CCN(CC)CCOCCOC(=O)C(CC)(CC)c1ccccc1`: the activity change, negative = inhibition in test [1] was 2.54%; in test [2], 7.52%; in test [3], -0.501%; in test [4], -6.66%; in test [5] it was 2.24%.
With `CCOc1ccc(CN2C(=O)c3cc4occc4n3CC2(C)C(=O)NC2CCCCC2)cc1` (stereo not given), the activity change, negative = inhibition turned out to be 3.58% in test [1]; 0% in test [2]; 7.84% in test [3]; 8.84% in test [4]; 3.49% in test [5].
Regarding `O=C(Cn1c(=O)oc2cc(S(=O)(=O)N3CCCC3)ccc21)Nc1nccs1`, the activity change, negative = inhibition in test [1] was -0.084%; in test [2], 3.87%; in test [3], -0.689%; in test [4], 4.84%; in test [5], -22.7%.
For `CCOCCCNC(=O)C1c2c(n(C)c3ccccc23)SCC(=O)N1c1ccc(CC)cc1` (stereo not given) the same measures were 4.54%, 0.862%, 3.31%, 3.87% and 5.97%.
`O=C(N[C@H](c1ccccn1)C1CC(O)C1)c1ccc(Cn2cccn2)o1` (stereo not given in full): the activity change, negative = inhibition was -0.065% in test [1]; 0.334% in test [2]; 0.822% in test [3]; 0.133% in test [4]; 2.47% in test [5].
The like results for `C=CCCC(CN1CCSCC1)Oc1ncc(CC)cn1` (stereo not given) were, in that order, -0.246%, 2.04%, 3.52%, 1.18% and 3.01%.
Turning to `CCCC1c2cccn2CCN1C(=O)Nc1ccccc1C` (stereo not given), the activity change, negative = inhibition in test [1] was -4.24%; in test [2], 0%; in test [3] it was -22%; in test [4], 0.508%; in test [5], 4.69%.
The like results for `CCN1C(=O)c2cc(C(=O)NCc3ccccc3Br)nn2CC1(C)C(=O)NC1CCCC1` (stereo not given) were, in that order, -0.428%, 0.905%, -5.03%, 2.97% and -3.72%.
The like results for `COc1cc2c(cc1CN1CCC3(CCCNC3)C1)OCCCO2` (stereo not given) were, in that order, -1.54%, -3.11%, -1.81%, -3.7% and -3.47%.
Consider `C/C=C(\C)C(=O)O[C@@H]1CC2[C@@H](CC=C3C[C@@H](O[C@H]4C[C@H](OC)[C@H](O[C@H]5C[C@H](OC)[C@H](O[C@H]6C[C@H](OC)[C@H](O[C@H]7C[C@@H](OC)[C@H](O[C@@H]8O[C@H](CO)[C@@H](O)[C@H](O)[C@H]8O)[C@@H](C)O7)[C@@H](C)O6)[C@@H](C)O5)[C@@H](C)O4)CC[C@@]32C)[C@@]2(O)CC[C@H](C(C)=O)[C@@]12C` (stereo not given in full), for which the activity change, negative = inhibition in test [1] turned out to be 0%; in test [2], 20.6%; in test [3], 10.4%; in test [4] it was 7.74%; in test [5] it was 8.36%.
Turning to `CN1C2CCC1CC(OC(=O)C(O)c1ccccc1)C2` (stereo not given), the activity change, negative = inhibition in test [1] was 3.01%; in test [2], 9.83%; in test [3], 4.28%; in test [4], -5.56%; in test [5], 4.07%.
As to `CC(C)NC(=O)CSc1nnc2n(Cc3ccccc3)c(=O)c3ccccc3n12`, the activity change, negative = inhibition was -5.26% in test [1]; 4.4% in test [2]; 4.92% in test [3]; -5.06% in test [4]; -2.73% in test [5].
With `N#CC(=C(\N)Sc1ccccc1N)/C(C#N)=C(/N)Sc1ccccc1N`, the activity change, negative = inhibition is -53.7% in test [1]; 8.61% in test [2]; 3.23% in test [3]; -6.34% in test [4]; -5.99% in test [5].
With `Cc1ccc(Cn2c(=O)c3ccccc3n3c(CCC(=O)Nc4cc(C)cc(C)c4)nnc23)cc1`, the activity change, negative = inhibition in test [1] was -2.52%; in test [2] it was 0%; in test [3], 5.83%; in test [4], 2.32%; in test [5], 1.65%.
Take `COc1cccc(S(=O)(=O)N2CCC(n3c(C)cnc3C3CCOCC3)CC2)c1`: the activity change, negative = inhibition in test [1] was 3.3%; in test [2], 0.893%; in test [3] it was 10.2%; in test [4] it was -5.42%; in test [5], 4.89%.
Consider `Cc1ccc(CNC(=O)c2ccc3c(=O)nc4c(-c5ccc(Cl)cc5)n[nH]n4c3c2)cc1`, for which the activity change, negative = inhibition in test [1] was 3.19%; in test [2], 0%; in test [3] it was 7.97%; in test [4], 9.53%; in test [5], 4.02%.
As for `O=C1CCN(C(=O)c2nccc3ccccc23)CCOCCN1`, the activity change, negative = inhibition in test [1] is -4.35%; in test [2] it was -7.25%; in test [3] it was -3.03%; in test [4], -5.17%; in test [5], -1.76%.
The like results for `Cc1ccc2nc(NC(=O)CSc3nc4c(c(=O)n3-c3ccccc3)SCC4)sc2c1` were, in that order, -0.461%, -1.59%, 6.96%, -16.8% and 0.288%.
For `CCCn1c(=O)c2ccc(C(=O)NCC(C)C)cc2n2c(=O)n(CC(=O)Nc3ccccc3C)nc12` the same measures were 4.49%, 0%, 5.72%, 4.34% and 2.53%.
`CC(=O)N1CCC(C(=O)NC2CCc3n[nH]c(=O)n3CC2)CC1` (stereo not given): the activity change, negative = inhibition in test [1] is -0.942%; in test [2], -2.2%; in test [3], 0.658%; in test [4], 0.686%; in test [5], 4.67%.
In the case of `O=[S+]1([O-])NC2(CCCN(Cc3ccc(F)cc3)C2)CNc2ccccc21` (stereo not given), the activity change, negative = inhibition in test [1] was -47.6%; in test [2] it was -2.17%; in test [3], 0.268%; in test [4], -1.8%; in test [5] it was 1.03%.
